{"source": "PubChem BioAssay AID686979", "about": "(National Center for Advancing Translational Sciences (NCATS), 2013)", "note": "About 50,000 (12%) of roughly 420,000 compounds were called active. Inconclusive results, whose numbers are uncertain, are shown with a selection of clear calls. The call rests on the fitted dose curve; in most records, active means well fitted inhibition curve with a large enough effect; inconclusive means small, poorly fitted or top-dose-only effect; inactive means flat fitted curve, though single readings scatter. No potency is given beside an inconclusive call; the fits are too rough. On the % scale 0 is the no-effect control and ±100 the full control effect; potency means the concentration at half of the fitted maximal effect; tags describe the fitted curve by direction and shape."}
{"test": "qHTS for Inhibitors of human tyrosyl-DNA phosphodiesterase 1 (TDP1): qHTS in cells in presence of CPT; further: nearly all actives have a fitted effect of over 55% in size", "conditions": "chicken DT40 Tdp1-/-;hTDP1 cells + 20 nM CPT, ATP luminescence, 48 h; activity change, negative = growth inhibition: at 46.2 µM (top of the series)", "how_it_was_run": "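Chicken DT40 Tdp1-/- cells complemented with human TDP1, 400 cells/well, exposed to compounds plus 20 nM camptothecin for at least 48 h at 37 C; viability read as ATP content by CellTiter-Glo luminescence.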"}
{"smiles": "O=C1CCN(Cc2ccccc2)CCN1[C@H](CSc1ccccc1)Cc1ccccc1", "Potency": "active: 23.1 µM"}
{"smiles": "COc1ccccc1-c1cc(C(F)(F)F)nc(S(=O)(=O)CCCC(=O)N2CCCCC2C)n1", "note": "(stereo not given)", "Potency": "active: 4.11 µM"}
{"smiles": "COc1ccc(-n2c(=O)c3ccccc3n(CC(=O)Nc3cccc(OC)c3)c2=O)cc1", "Potency": "inconclusive [inhibitor, single point]"}
{"smiles": "CCN(CC)S(=O)(=O)c1ccc(Cl)c(NC(=O)COC(=O)c2ccc(O)cc2)c1", "Potency": "inconclusive [inhibitor, single point]"}
{"smiles": "COc1ccc(CCNC(=O)Cn2c(=O)n(-c3ccc(F)cc3F)c(=O)c3sccc32)cc1OC", "Potency": "inconclusive [inhibitor, partial curve]"}
{"smiles": "CCOC(=O)Nc1ccc(/C=C/c2ccnc3ccccc23)cc1", "Potency": "inconclusive [inhibitor, single point]"}
{"smiles": "COc1ccc2cc(C(=O)N(C)CC(=O)Nc3ccccc3Br)ccc2c1", "Potency": "inconclusive [inhibitor, single point]"}
{"smiles": "O=C(CN1C(=O)c2cccnc2Oc2ccc(Cl)cc21)N1CCCC1", "Potency": "inactive"}
{"smiles": "O=[N+]([O-])c1ccc(Oc2cccc3cccnc23)c([N+](=O)[O-])c1", "Potency": "active: 5.17 µM"}
{"smiles": "COC(=O)c1cc(-c2c(C)oc3cc(OC(C)C)ccc3c2=O)c(C)o1", "Potency": "active: 14.6 µM"}
{"smiles": "CCC1Sc2ccc(S(=O)(=O)CCC(=O)NC3CCCCCC3)cc2NC1=O", "note": "(stereo not given)", "Potency": "inconclusive [inhibitor, partial curve, poor fit]"}
{"smiles": "COC(=O)[C@@]1(Cc2ccc(F)cc2)[C@H]2c3cc(C(=O)N4CCCC4)n(CCSCCO)c3C[C@H]2CN1C(=O)c1ccccc1", "Potency": "inconclusive [inhibitor, single point]"}
{"smiles": "CCOc1ncccc1C(=O)NCc1cccc(OC)c1", "Potency": "inconclusive [inhibitor, partial curve, poor fit]"}
{"smiles": "COC(=O)c1ccc(NC(=O)CC2C(=O)N(c3ccc(Cl)cc3)C(=O)N2Cc2cccs2)cc1", "note": "(stereo not given)", "Potency": "active: 23.1 µM"}
{"smiles": "CCOc1ccc(NC(=O)c2sc3nc(C)nc(N4CCOCC4)c3c2C)cc1", "Potency": "inactive"}
{"smiles": "COc1cc(NC(=S)NC(=O)c2ccc(C(C)(C)C)cc2)ccc1NC(=O)c1cccs1", "Potency": "inconclusive [inhibitor, single point]"}
{"smiles": "COc1ccc(NC(=O)CSc2ncc(-c3ccc(Cl)cc3)[nH]2)cc1OC", "Potency": "inconclusive [inhibitor, single point]"}
{"smiles": "Cc1ccc(NC(=O)C(C)c2ccc([N+](=O)[O-])cc2)cc1Cl", "note": "(stereo not given)", "Potency": "inconclusive [inhibitor, single point]"}
{"smiles": "Cc1ccc(S(=O)(=O)CCC(=O)OCc2ccccc2F)cc1", "Potency": "inactive"}
{"smiles": "S=C1NC2(CCCC2)N=C1c1ccccc1", "Potency": "inactive"}
{"smiles": "CCOc1ccc(OCC)c(-c2c(=O)n(OCc3ccccc3C(=O)OC)c3ccccc3[n+]2[O-])c1", "Potency": "active: 13 µM"}
{"smiles": "CN(C)c1ccc(/C=C/C=C2/C=Cc3ccccc32)cc1", "Potency": "inconclusive [inhibitor, single point]"}
{"smiles": "COc1ccc(C2Nc3ccccc3C(=O)N2c2ccc(C)cc2)cc1Cn1nnc2ccccc21", "note": "(stereo not given)", "Potency": "inconclusive [inhibitor, partial curve, poor fit]"}
{"smiles": "O=C1c2ccccc2C(=O)N1CC1c2ccccc2CCN1S(=O)(=O)c1cnc[nH]1", "note": "(stereo not given)", "Potency": "inactive"}
{"smiles": "N#Cc1ccc(/C=C/C(=O)c2ccco2)cc1", "Potency": "active: 9.2 µM"}
{"smiles": "CC1CCCN(c2ccc3nncn3n2)C1", "note": "(stereo not given)", "Potency": "inactive"}
{"smiles": "Cc1cc(NC(=O)C(C)SCC(=O)N(C)CC(=O)Nc2ccccc2Br)no1", "note": "(stereo not given)", "Potency": "inactive"}
{"smiles": "O=C(O)c1c(-c2ccccc2)oc2ccc(O)cc12", "Potency": "inactive"}
{"smiles": "COc1ccc(/C=C2\\N=C(C(C)(C)C)OC2=O)c(OC)c1", "Potency": "active: 7.31 µM"}
{"smiles": "Cc1ccc2nc(SCC(=O)N3CCC4(CC3)CC4C(=O)Nc3ccc(F)c(F)c3)[nH]c2c1", "note": "(stereo not given)", "Potency": "inconclusive [inhibitor, single point]"}
{"smiles": "COc1ccc(C(C)(O)c2nc(-c3ccoc3)cs2)cc1", "note": "(stereo not given)", "Potency": "inconclusive [inhibitor, single point]"}
{"smiles": "COc1cc(C(=O)OCc2ccc(C)cc2)cc(NC(=O)c2cccs2)c1OC", "Potency": "inconclusive [inhibitor, single point]"}
{"smiles": "O=c1cc(CN2CCN(Cc3ccccc3)CC2)c2ccc(O)c(O)c2o1", "Potency": "active: 10.3 µM"}
{"smiles": "Cc1cccc2c1N(C)C(=O)C2=O", "Potency": "inconclusive [inhibitor, single point]"}
{"smiles": "CC1CCN(c2nnc(N3CCC(C)CC3)c3ccccc23)CC1", "activity change, negative = growth inhibition": "inconclusive: -34.4% [inhibitor]"}
{"smiles": "O=C(N/N=C/c1ccc(O)cc1)c1csc2ccccc12", "Potency": "inconclusive [inhibitor, full curve]"}
{"smiles": "CSc1ccc(S(=O)(=O)Nc2ccc(N3CCOCC3)c(Cl)c2)cc1", "Potency": "inconclusive [inhibitor, single point]"}
{"smiles": "COc1cc(OC)cc(C(=O)NNC(=O)c2cc3c(s2)CCCC3)c1", "Potency": "inconclusive [inhibitor, partial curve]"}
{"smiles": "Cc1ccc(O)c(C(=O)c2cnc3c(c2)c(-c2ccc(F)cc2)c(C#N)c(=O)n3C)c1", "Potency": "active: 18.4 µM"}
{"smiles": "O=C(N/N=C/c1ccc(Cl)cc1)Nc1ccccc1", "Potency": "inconclusive [inhibitor, partial curve]"}
{"smiles": "CCCC(=O)N1CCCC(c2cc(C(=O)Nc3ccccc3)no2)C1", "note": "(stereo not given)", "Potency": "inconclusive [inhibitor, single point]"}
{"smiles": "CCOC(=O)c1sc2ccccc2c1S(=O)(=O)Nc1ccc(N(C)C)cc1", "Potency": "inconclusive [inhibitor, single point]"}
{"smiles": "CC(C)(O)c1[nH]c2cc(F)ccc2c1C(C)(C)O", "Potency": "inconclusive [inhibitor, single point]"}
{"smiles": "O=C(NCC(=O)N1CCN(C/C=C/c2ccccc2)CC1)c1ccc(Br)cc1", "Potency": "active: 16.4 µM"}
{"smiles": "CCS(=O)(=O)Nc1cccc(-c2cc(-c3ccccc3)c3cc(C)ccc3n2)c1", "Potency": "inconclusive [inhibitor, single point]"}
{"smiles": "Clc1cccc(Cl)c1CSc1nnc(-c2ccncc2)s1", "Potency": "inconclusive [inhibitor, single point]"}
{"smiles": "Cc1ccc(-c2nnn(CC(=O)N(c3ccc(F)cc3)C(C(=O)NC3CCCC3)c3ccco3)n2)o1", "note": "(stereo not given)", "Potency": "active: 14.6 µM"}
{"smiles": "CCN1C(=O)[C@@H]2[C@@H]3CN(S(=O)(=O)c4ccccc4C)[C@@H](c4ccc(Cl)cc4)[C@@H]3C(=O)C[C@@H]2C1=O", "Potency": "inconclusive [inhibitor, single point]"}
{"smiles": "COc1ccccc1-n1cnnc1SCC(=O)Nc1cc(C(C)(C)C)nn1-c1ccccc1", "Potency": "active: 10.3 µM"}
{"smiles": "O=C(NCc1nnc2c(C(F)(F)F)cc(Cl)cn12)c1ccc2c(c1)OCO2", "Potency": "inactive"}
{"smiles": "COc1ccccc1NC(=O)CCCOc1cc(=O)n(C)c2ccccc12", "Potency": "inconclusive [inhibitor, single point]"}
{"smiles": "CCOC(=O)C1CCN(c2c(C(=O)c3ccccc3)cnc3ccc(Cl)cc23)CC1", "Potency": "active: 23.1 µM"}
{"smiles": "O=c1[nH]c(=O)n(Cc2ccccc2)c2c1C(C(F)(F)F)(C(F)(F)F)N=C(c1ccco1)N2", "Potency": "inconclusive [inhibitor, single point]"}
{"smiles": "Cc1cc(C)c(CN2CCC(n3nccc3NC(=O)c3ccccc3Cl)CC2)cc1C", "Potency": "active: 14.6 µM"}
{"smiles": "O=C(Nc1ccc2[nH]c(=S)sc2c1)c1ccccc1", "Potency": "inactive"}
{"smiles": "Cn1nc([N+](=O)[O-])c(C(C#N)c2nc3ccccc3n2C)c(Cl)c1=O", "note": "(stereo not given)", "Potency": "inconclusive [inhibitor, single point]"}
{"smiles": "Cc1ccc(NNC(=O)c2ccc(Cl)cc2)nn1", "Potency": "inactive"}
{"smiles": "Cc1nonc1C(=O)N/N=C/c1cccc(O)c1", "Potency": "inactive"}
{"smiles": "Cc1ccc2nc(-c3ccco3)c(Cc3cccc(F)c3)n2c1", "Potency": "inconclusive [inhibitor, single point]"}
{"smiles": "CCOC(=O)C1=C(C)C2C3C(=O)N(c4ccccc4C)C(=O)C3C1(C)C1C(=O)N(c3ccccc3C)C(=O)C21", "note": "(stereo not given)", "Potency": "inconclusive [inhibitor, partial curve]"}
{"smiles": "O=S(=O)(NCC1CCCO1)c1ccc(S(=O)(=O)N2CCc3ccccc3C2)cc1", "note": "(stereo not given)", "Potency": "inactive"}
{"smiles": "O=C(Nc1cccc(Cl)c1)c1ccc2c(=O)n3c(nc2c1)CCCCC3", "Potency": "active: 23.1 µM"}
{"smiles": "CCCCCC(=O)Nc1nc(C)c(-c2csc(Nc3cc(Cl)ccc3OC)n2)s1", "Potency": "inconclusive [inhibitor, single point]"}
{"smiles": "O=C(c1ccc(Cl)c(S(=O)(=O)N2CCCCCC2)c1)N1CCCC(C(F)(F)F)C1", "note": "(stereo not given)", "Potency": "inconclusive [inhibitor, single point]"}
{"smiles": "Cn1nccc1C(=O)N1CCN(S(=O)(=O)c2ccc(Br)s2)CC1", "Potency": "inactive"}
{"smiles": "COc1ccc(S(=O)(=O)N2CCOCC2)cc1NC(=O)c1cccc(-n2cccc2)c1", "Potency": "inconclusive [inhibitor, single point]"}
{"smiles": "CC(C)(C)CC(=O)N1CCN(c2ccc(S(=O)(=O)N3CCOCC3)cc2[N+](=O)[O-])CC1", "activity change, negative = growth inhibition": "inconclusive: -31.6% [inhibitor]"}
{"smiles": "Cn1c(=O)c2c(ncn2CC(=O)N2CCCc3ccccc32)n(C)c1=O", "Potency": "inactive"}
{"smiles": "Cc1cc(-c2ccccc2)n(-c2ccc(C(=O)N3CCN(c4ncccn4)CC3)cc2)n1", "Potency": "inconclusive [inhibitor, partial curve]"}
{"smiles": "COc1ccc(CCNC(=O)c2nn(-c3ccc(C)cc3)c(=O)c3c2c2ccccc2n3C)cc1OC", "Potency": "inconclusive [inhibitor, full curve, poor fit]"}
